Test results from PubChem BioAssay AID652104 (National Center for Advancing Translational Sciences (NCATS), 2013).
Hit rate of the full screen: of about 410,000 compounds, about 7,200 (1.8%) were called active. Inconclusive means that the source gave no clear call. Such entries were picked first, then a sample of the others. The call rests on the fitted dose curve; in most records, active means well fitted activation curve with a large enough effect; inconclusive means small, poorly fitted or top-dose-only effect, or another doubt; inactive means no such curve, though single readings can be large or run the other way. Potencies of inconclusive entries are left out as doubtful fits.

Test: qHTS of TDP-43 Inhibitors; further: nearly all actives have a fitted effect of over 50% in size; on growth rescue (activation): % of control where 0% means no effect
Conditions: TDP-43 expressing yeast growth rescue, BacTiter-Glo, 24 h; growth rescue (activation): at 46.1 µM (top of the series) unless noted
Method in brief: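 Yeast expressing TDP-43 (pregrown in raffinose, seeded at OD600=0.02 in galactose medium) exposed to compounds 24 hr at 30 deg C. Growth read by BacTiter-Glo luminescence; rescue of toxicity appears as increased signal.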
Potency means the concentration at half of the fitted maximal effect; tags describe the fitted curve by direction and shape.

**Q.** For O=C1CSC(=S)N1c1ccc(O)cc1, which Potency is on record?
**A.** inconclusive [activator, partial curve]

**Q.** For CCCCN1C[C@H](C)[C@@H](CC(=O)Nc2ccccc2)C1=O, which Potency is on record?
**A.** inconclusive [activator, partial curve]

**Q.** Which Potency does the source give for COc1cc(C(N)=O)cc(Cl)c1OCc1ccccc1 here?
**A.** inconclusive [activator, partial curve, poor fit]

**Q.** Which “growth rescue (activation)” value does the source give for Cn1c(=O)c(=O)n(C)c2cc(S(=O)(=O)CCC(=O)Nc3ccccc3C(F)(F)F)ccc21 here?
**A.** inactive: 8.5%

**Q.** For COc1ccc(NC(=O)c2cc(-c3ccc(F)cc3OC(C)C)n[nH]2)cn1, which “growth rescue (activation)” value is on record?
**A.** inactive: 14.7%

**Q.** With COc1ccc(Nc2nnc(SCC3CCCCO3)s2)cc1 (stereo unspecified) as the molecule, how does the Potency read?
**A.** active: 11.2 µM

**Q.** Which Potency does the source give for O=C(N/N=C/c1cc(Cl)cc(Cl)c1O)c1ccncc1 here?
**A.** inconclusive [activator, full curve]

**Q.** With COc1ccc(OC(C)C(=O)N(C)Cc2nc(-c3ccc(OC)cc3)no2)cc1 (stereo unspecified) as the molecule, how does the Potency read?
**A.** inconclusive [activator, partial curve, poor fit]

**Q.** For N#Cc1nc(-c2ccco2)oc1N1CCc2ccccc2C1, which Potency is on record?
**A.** inconclusive [activator, single point]

**Q.** With Cc1ccc(N)c([N+](=O)[O-])c1 as the molecule, how does the “growth rescue (activation)” value read?
**A.** inactive: 15.3%

**Q.** For O=C(NCc1ccco1)C1CCCN(c2nnc(-n3cccc3)s2)C1 (stereo unspecified), which Potency is on record?
**A.** inconclusive [activator, single point]

**Q.** With Cc1ccccc1OCC(=O)N/N=C/c1ccc([N+](=O)[O-])o1 as the molecule, how does the “growth rescue (activation)” value read?
**A.** inactive: 10.7%

**Q.** For CCc1ccccc1NC(=O)c1nc2nc(C)cc(C(F)F)n2n1, which “growth rescue (activation)” value is on record?
**A.** inactive: 20.4%

**Q.** For CN=c1scc(-c2cc(OC)ccc2OC)n1/N=C/c1c(C)[nH]c2ccccc12, which Potency is on record?
**A.** inconclusive [activator, single point]

**Q.** Which “growth rescue (activation)” value does the source give for N#Cc1c(C(F)(F)F)cc(-c2cccs2)nc1SCC(=O)Nc1cccc(Br)c1 here?
**A.** inactive: 26.1%

**Q.** Which Potency does the source give for Cn1cnnc1SCC(=O)n1c2ccccc2c2ccccc21 here?
**A.** inconclusive [activator, partial curve]

**Q.** With Cc1cccc(NC(=O)/C(=C\c2ccc([N+](=O)[O-])o2)NC(=O)c2ccc(Cl)cc2)c1 as the molecule, how does the “growth rescue (activation)” value read?
**A.** inactive: 15.8%

**Q.** For CCN(CC)CCNC(=O)CN1C(=O)CSc2ccc(S(=O)(=O)N3CCOCC3)cc21, which Potency is on record?
**A.** inconclusive [activator, full curve, poor fit]

**Q.** Which Potency does the source give for CCn1c(SCc2ccccc2)nnc1C1CCCCC1 here?
**A.** inconclusive [activator, full curve]

**Q.** Which Potency does the source give for CCOC(=O)c1c(C=O)c(C)n(Cc2ccccc2Cl)c1C here?
**A.** inconclusive [activator, partial curve]

**Q.** Which growth rescue (activation) does the source give for CCOC(=O)c1c(/N=C/N(C)C)sc(/C=N/Nc2ccccc2)c1-c1ccccc1Cl here?
**A.** inactive: -14% [at 9.22 µM]

**Q.** Which Potency does the source give for O=C(NC(=S)Nc1ccccc1)c1ccc(Br)o1 here?
**A.** inconclusive [activator, full curve, poor fit]

**Q.** Which Potency does the source give for O=c1cc(CNc2ccc(Br)cc2)nc2sccn12 here?
**A.** active: 20 µM

**Q.** For Cc1ccc(C)c(N2CCN(C(=O)CCc3c(C)nn(-c4ccc(N5CCCC5)nn4)c3C)CC2)c1, which Potency is on record?
**A.** inconclusive [activator, single point]

**Q.** With COc1cccc(CN2C(=O)c3ccccc3C2C(=O)NCCc2ccccc2)c1 (stereo unspecified) as the molecule, how does the “growth rescue (activation)” value read?
**A.** inactive: 22.5%

**Q.** Which Potency does the source give for Cc1c(Cl)cccc1NC(=S)NCc1cccs1 here?
**A.** inconclusive [activator, partial curve]

**Q.** Which “growth rescue (activation)” value does the source give for COc1ccc2c(c1)C(=O)C(=O)N2CC1COc2ccccc2O1 (stereo unspecified) here?
**A.** inactive: -88.4%

**Q.** Which Potency does the source give for COc1ccccc1C=CC(=O)C=Cc1ccccc1OC here?
**A.** inconclusive [activator, full curve, poor fit]

**Q.** With CCN(CC(=O)NCc1ccc(Cl)cc1)C(=O)COc1ccc(Cl)cc1Br as the molecule, how does the Potency read?
**A.** inconclusive [activator, single point]

**Q.** For CC(C)CCNC(=S)Nc1ccc(Br)cc1, which Potency is on record?
**A.** inconclusive [activator, single point]

**Q.** With CCOc1ccc(NC(=O)c2cnn3c2NC(C)=C(C(=O)Nc2ccc(Cl)cc2)C3c2ccc(OC)c(OC)c2)cc1 (stereo unspecified) as the molecule, how does the Potency read?
**A.** inconclusive [activator, full curve]

**Q.** Which Potency does the source give for COc1ccccc1-c1oc2ccccc2c1C#CCCCCO here?
**A.** inconclusive [activator, single point]

**Q.** With COc1ccc(-n2ccn3c(CC(C)(C)CC(=O)O)nnc3c2=O)cc1 as the molecule, how does the “growth rescue (activation)” value read?
**A.** inactive: 17.2%

**Q.** With N#Cc1cnn2ccc(-c3ccc4c(c3)CCC4)nc12 as the molecule, how does the Potency read?
**A.** inconclusive [activator, full curve, poor fit]

**Q.** For C[C@@H](C(=O)OCC(=O)NCCc1ccc(S(N)(=O)=O)cc1)N1C(=O)C2CCCCC2C1=O (stereo partly specified), which Potency is on record?
**A.** inconclusive [activator, single point]

**Q.** With COc1ccc(C)cc1NC1(c2ccccc2)C(=O)c2ccccc2C1=O as the molecule, how does the “growth rescue (activation)” value read?
**A.** inactive: 17.8%

**Q.** Which “growth rescue (activation)” value does the source give for CC(=O)c1ccc(C(=O)NC2CCCN(Cc3ccccc3F)C2)s1 (stereo unspecified) here?
**A.** inactive: 6.13%

**Q.** Which Potency does the source give for Cc1cccc(OCCNc2ccc([N+](=O)[O-])cn2)c1 here?
**A.** active: 12.6 µM

**Q.** With COc1ccc2[nH]c(C(=O)N3CCN(c4ccccc4F)CC3)c(C)c2c1 as the molecule, how does the Potency read?
**A.** active: 15.8 µM

**Q.** With O=C(Nc1ccc(-c2ccccc2)cc1)c1ccccc1 as the molecule, how does the Potency read?
**A.** inconclusive [activator, partial curve, poor fit]

**Q.** For CC1CCN(S(=O)(=O)c2ccc3nc(Nc4cccc(F)c4)ccc3c2)CC1, which Potency is on record?
**A.** inconclusive [activator, single point]

**Q.** Which Potency does the source give for COc1cc(-c2cc3nc(NCc4ccco4)ccn3n2)cc(OC)c1OC here?
**A.** inconclusive [activator, single point]

**Q.** Which Potency does the source give for Cc1cc2cc3c(cc2nc1SCC(=O)N1CCOCC1)OCO3 here?
**A.** inconclusive [activator, single point]

**Q.** For O=C(CCl)N1c2ccccc2SCC1c1ccccc1 (stereo unspecified), which Potency is on record?
**A.** active: 7.94 µM

**Q.** Which Potency does the source give for C=CCn1c2ccccc2c2nn(C)c(=S)nc21 here?
**A.** inconclusive [activator, partial curve]

**Q.** Which Potency does the source give for Cc1ncc([N+](=O)[O-])n1CCOC(=O)c1cc(Cl)cc(Cl)c1N here?
**A.** inconclusive [activator, partial curve]
